Source: PubChem BioAssay AID1347165 (National Center for Advancing Translational Sciences (NCATS), 2019)
About 5,700 (2.6%) of roughly 220,000 compounds were called active. The inconclusive results got no clear call from the source; some entries with a clear call stand among them for comparison. Calls follow the shape of the dose curve; as a rule, active = well fitted inhibition curve with a large enough effect; inconclusive = small, poorly fitted or top-dose-only effect; inactive = no such curve, though single readings can be large or run the other way. Potencies beside an inconclusive call are fits to weak or partial responses and may not hold up.

molecular target: Lysine-specific demethylase 5B (Homo sapiens) (UniProt Q9UGL1); assay: Primary screen for KDM5B Histone Demethylases FDH-coupled qHTS; conditions: FDH-coupled NADH fluorescence (FDH is formaldehyde dehydrogenase); activity change, negative = inhibition: at 57.7 µM (top of the series) unless noted; also: nearly all actives have a fitted effect of over 70% in size; as to activity change, negative = inhibition: 0% is about no effect
Procedure, shortened: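 Here, H3K4me3 peptide (12.5 µM in substrate mix) is demethylated by KDM5BΔAP, 200 nM final, after 10 min compound exposure. Formaldehyde product is coupled through FDH (0.25 U/mL in mix) to NADH fluorescence; 30-min ΔRFU feeds dose-response curves.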
Potency is read from the fitted curve at half-maximal effect; tags tell the direction and shape of the fitted curve.

Chain of UniProt Q9UGL1 (Q9UGL1 whole entry, looked up): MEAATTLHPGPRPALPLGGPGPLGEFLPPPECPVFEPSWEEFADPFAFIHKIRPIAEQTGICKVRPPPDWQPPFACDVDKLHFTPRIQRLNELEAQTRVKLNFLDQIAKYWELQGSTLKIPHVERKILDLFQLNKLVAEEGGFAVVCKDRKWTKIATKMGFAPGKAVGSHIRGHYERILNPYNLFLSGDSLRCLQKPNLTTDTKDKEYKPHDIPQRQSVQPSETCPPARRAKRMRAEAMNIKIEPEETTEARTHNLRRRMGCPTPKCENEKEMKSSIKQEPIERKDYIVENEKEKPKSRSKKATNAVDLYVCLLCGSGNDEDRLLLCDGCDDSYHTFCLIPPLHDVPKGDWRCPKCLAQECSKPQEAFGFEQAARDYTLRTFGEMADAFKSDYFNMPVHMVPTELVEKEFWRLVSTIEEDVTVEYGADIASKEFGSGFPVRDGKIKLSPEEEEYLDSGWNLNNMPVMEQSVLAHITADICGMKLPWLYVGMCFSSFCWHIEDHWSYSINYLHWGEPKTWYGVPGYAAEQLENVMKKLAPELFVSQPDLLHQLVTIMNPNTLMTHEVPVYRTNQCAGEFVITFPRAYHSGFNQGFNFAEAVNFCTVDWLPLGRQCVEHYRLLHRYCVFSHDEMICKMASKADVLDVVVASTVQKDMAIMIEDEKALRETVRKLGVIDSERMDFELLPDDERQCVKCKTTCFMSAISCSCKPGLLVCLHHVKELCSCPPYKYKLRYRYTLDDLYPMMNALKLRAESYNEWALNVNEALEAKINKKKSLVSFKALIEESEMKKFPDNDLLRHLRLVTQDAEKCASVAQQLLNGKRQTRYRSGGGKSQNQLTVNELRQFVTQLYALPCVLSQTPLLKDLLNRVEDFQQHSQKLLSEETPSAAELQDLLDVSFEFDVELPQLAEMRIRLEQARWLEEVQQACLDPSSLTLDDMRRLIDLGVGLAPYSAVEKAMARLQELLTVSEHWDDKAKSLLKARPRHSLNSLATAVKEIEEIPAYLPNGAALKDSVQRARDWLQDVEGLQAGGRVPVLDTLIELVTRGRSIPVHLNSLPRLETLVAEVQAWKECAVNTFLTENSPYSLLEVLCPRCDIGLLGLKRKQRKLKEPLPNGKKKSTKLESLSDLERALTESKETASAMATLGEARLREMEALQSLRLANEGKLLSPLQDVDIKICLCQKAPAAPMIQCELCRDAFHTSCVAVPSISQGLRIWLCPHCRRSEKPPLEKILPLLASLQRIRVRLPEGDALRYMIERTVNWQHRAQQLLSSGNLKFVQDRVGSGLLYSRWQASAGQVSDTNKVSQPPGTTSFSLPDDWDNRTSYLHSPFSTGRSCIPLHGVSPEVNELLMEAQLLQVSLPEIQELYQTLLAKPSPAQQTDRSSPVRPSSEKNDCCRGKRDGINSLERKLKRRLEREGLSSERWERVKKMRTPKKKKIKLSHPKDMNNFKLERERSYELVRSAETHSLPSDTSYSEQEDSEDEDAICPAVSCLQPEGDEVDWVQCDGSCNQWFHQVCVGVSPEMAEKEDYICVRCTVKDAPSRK

SMILES | activity change, negative = inhibition | Potency
COc1cc(C(=O)N2N=C(C)CC2(O)C(F)(F)F)cc(OC)c1OC (stereo not given) | inactive: -3.67% | –
N/C(=N\NS(=O)(=O)c1ccccc1C(F)(F)F)c1ccccn1 | – | inconclusive: 1.78 µM [inhibitor, full curve, poor fit]
CCN(CC)C(=O)Cn1cc(SCC(=O)Nc2cc(OC)ccc2OC)c2ccccc21 | – | inconclusive: 14.1 µM [inhibitor, partial curve, poor fit]
FC(F)(F)c1ccc(N2C3CCC2CN(Cc2cccc(-c4cccs4)c2)C3)cc1 | – | inconclusive: 56.2 µM [inhibitor, partial curve, poor fit]
COc1ccc(Cl)cc1NC(=O)CSc1nc(-c2cccs2)cc(C(F)(F)F)n1 | – | inconclusive: 15.8 µM [inhibitor, partial curve, poor fit]
C=CCNC(=O)C(NC(=O)c1cccc(OC)c1)C1CCN(C(=O)c2ccc(F)cc2)CC1 (stereo not given) | inactive: -8.65% | –
O=S(=O)(N[C@H]1[C@H](O)[C@H](O)C[C@@H]1c1ccc(C(F)(F)F)cc1)c1ccc(F)cc1 | inactive: 9.76% [at 86.2 µM] | –
CCCCc1nc(NCC2CCCO2)c(C#N)c2c1CCCC2 (stereo not given) | – | inconclusive: 17.8 µM [inhibitor, partial curve, poor fit]
CC1(C)Cc2c(C#N)c(N3CCN(C(=O)C(=O)N4CCOCC4)CC3)nc(-c3ccco3)c2CO1 | – | inconclusive: 35.5 µM [inhibitor, partial curve, poor fit]
COc1cccc(-c2cc(C3CCN(C(=O)Nc4cccc(F)c4)CC3)[nH]n2)c1 | inactive: -11.9% | –
COCCN1CC(CO)C2(CCN(Cc3cc(F)ccc3F)CC2)C1 (stereo not given) | – | inconclusive: 15.8 µM [inhibitor, partial curve]
COc1ccccc1N1CCN(c2ncc3c(n2)CCN(Cc2ccc(C)s2)C3)CC1 | – | inconclusive: 31.6 µM [inhibitor, single point]
COc1ccc(C(=O)NCC2Cn3cccc3C(=O)N2Cc2ccccc2)cc1 (stereo not given) | inactive: 15.5% | –
CN1C(=O)CC(C(=O)O)C12CCN(C(=O)Nc1cccc(F)c1)CC2 (stereo not given) | inactive: 28.5% | –
CCO[C@H]1CN(C(=O)C2(c3ccc(OC)c(OC)c3)CCCC2)C[C@@H]1O | inactive: 16.9% | –
O[C@@H]1CCN(c2nccc(C3(c4ccccc4Cl)CCNCC3)n2)C1 | – | active: 28.2 µM
CCCCOC(=O)c1ccc(NC(=O)c2ccc3c(c2)CCCN3S(C)(=O)=O)cc1 | – | inconclusive: 28.2 µM [inhibitor, partial curve, poor fit]
O=C(CSc1nc2ccccc2nc1Cc1ccc(Cl)cc1)N1CCCCC1 | – | inconclusive: 15.8 µM [inhibitor, partial curve, poor fit]
O=C(NC1CCCCCC1)c1nc(Cc2c[nH]c3ccccc23)no1 | inactive: -3.39% | –
Fc1ccc(CNc2nc(-c3ccc(Cl)cc3)cc(C(F)(F)F)n2)cc1 | – | inconclusive: 28.2 µM [inhibitor, partial curve, poor fit]
Cn1ccnc1-c1nc2cc(S(=O)(=O)N3CCCC3)ccc2n1C | – | inconclusive: 31.6 µM [inhibitor, partial curve, poor fit]
CC(=O)NC1CC2(CCN(C(=O)CCC(=O)OC(C)(C)C)CC2)Oc2ccccc21 (stereo not given) | inactive: 27.5% [at 115 µM] | –
Nc1nc2nc(-c3ccccc3)cc(=O)n2[nH]1 | – | inconclusive: 22.4 µM [inhibitor, partial curve, poor fit]

SMILES | activity change, negative = inhibition | Potency
CCCCCCCCCCCCSCCO | inactive: 17% | –
Brc1ccc(-c2cc3ccccn3c2)cc1 | – | inconclusive: 39.8 µM [inhibitor, single point]
CNC(=O)[C@@H]1CCCC[C@@H]1c1nc(-c2ccncc2)nn1CCO | – | inconclusive: 39.8 µM [inhibitor, single point]
COc1ccc(NC(=O)c2ccc(NC(=O)CN3CCN(c4ccc(O)cc4)CC3)cc2)cc1 | – | inconclusive: 8.91 µM [inhibitor, partial curve, poor fit]
Cc1nn(-c2ccc(Cl)nn2)c2c1C(c1ccc(C(=O)O)cc1)CC(=O)N2 (stereo not given) | inactive: -17% | –
CCC(C(=O)Nc1cc(-c2cn3cccnc3n2)ccc1C)c1ccccc1 (stereo not given) | – | inconclusive: 3.98 µM [inhibitor, full curve, poor fit]
CC(C)(C)C(=O)NC(Nc1ccccc1)C(Cl)(Cl)Cl (stereo not given) | inactive: 10.3% | –
CC1(C)Cc2c(ccc3ccccc23)C(CCl)N1 (stereo not given) | inactive: 2.95% | –
Cc1cn2nc(C(=O)Nc3ccc(F)cc3C)cc2c(N(C)Cc2ccccc2)n1 | – | active: 20 µM
CCN(CC)C(=O)c1cn2ccnc(-c3ccc(C)cc3)c2n1 | inactive: -12.9% | –
CCCCOc1ccc(C(=O)Nc2sc3c(c2C(=O)OCC)CCCCC3)cc1 | – | inconclusive: 1.41 µM [inhibitor, partial curve, poor fit]
COc1ccc(Nc2ncc(C(=O)Nc3ccc(F)cc3F)c3ccccc23)cc1 | – | inconclusive: 39.8 µM [inhibitor, single point]
Cc1ccc(NC(=O)c2cc(=O)c3cc(C)cc(C)c3o2)cc1 | inactive: 5.93% | –
COCCN1CC(CO)C2(CCN(Cc3cccs3)CC2)C1 (stereo not given) | – | inconclusive: 15.8 µM [inhibitor, partial curve]
Cc1cc(NC(=O)c2oc3c(c2C)-c2[nH]ncc2CC3)ccc1Br | – | inconclusive: 39.8 µM [inhibitor, partial curve, poor fit]
CCN(CC)CCNC(=O)c1ccc(NC(=O)Cc2cccc(C(F)(F)F)c2)cc1 | inactive: -27.4% | –
Cn1cc(CN[C@H]2[C@H](O)[C@H](O)C[C@@H]2c2ccc(N3CCOCC3)nc2)cn1 | – | active: 39.8 µM
N#Cc1ccc(NC(=O)COCc2cc(-c3ccc4c(c3)OCO4)on2)cc1 | – | inconclusive: 25.1 µM [inhibitor, partial curve, poor fit]
Cc1cc(N2CCN(C)CC2)nc2ccc(NC(=O)Nc3ccc(Cl)cc3)cc12 | – | inconclusive: 31.6 µM [inhibitor, partial curve, poor fit]
CCCOc1ccccc1C(=O)N1CCC2(CC1)[C@H](O)C[C@@H]2OCCN | inactive: -7.52% | –
Cc1cc(=O)oc2cc(OCC(=O)NCc3cccc(C(F)(F)F)c3)ccc12 | inactive: -29% | –
CCn1c(C(=O)O)c(CC(=O)N(C)c2ccc(OC)cc2OC)c2ccccc21 | – | inconclusive: 20 µM [inhibitor, single point]
